Data published in the BET-seq Pho4 binding data (Le et al. 2018).
Some of the results follow. Values were computed here from the reads of four pooled replicates and scatter widely.

Molecular target: T1, Pho4 (S. cerevisiae) (UniProt P07270)
T1 sequence: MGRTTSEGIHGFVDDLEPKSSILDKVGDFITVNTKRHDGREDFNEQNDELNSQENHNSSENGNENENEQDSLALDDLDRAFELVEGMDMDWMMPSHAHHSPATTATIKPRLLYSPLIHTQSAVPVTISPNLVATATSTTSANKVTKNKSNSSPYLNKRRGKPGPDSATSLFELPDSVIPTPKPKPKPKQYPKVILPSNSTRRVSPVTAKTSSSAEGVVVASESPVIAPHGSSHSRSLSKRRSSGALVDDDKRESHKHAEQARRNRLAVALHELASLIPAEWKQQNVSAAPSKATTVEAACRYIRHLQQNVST
Experiment: relative binding free energy (BET-seq); higher = weaker binding
Details: reference: library average

Sequence | relative binding free energy [kcal/mol]
AACGTCACGTGGTGGC | 0.11
GGTGGCACGTGTGGCA | 0.04
TGGTACACGTGATATT | -0.01
TGTTTCACGTGTGAAA | 0.29
GGGTTCACGTGGTTTG | 0.37
ATGTACACGTGTGTAT | 0.11
TTTGGCACGTGCCGAG | -0.22
TGTGCCACGTGTTGAC | 0.06
AGATTCACGTGTCTGT | 0.24
TGATTCACGTGGAATT | 0.34
TTCTTCACGTGAGTTA | 0.35
CAGCGCACGTGTAGGG | -0.15
GGTTGCACGTGGGCAT | -0.07
GGCATCACGTGCTTGT | 0.28
TGAGTCACGTGTTTTC | 0.12
CTGAACACGTGGGGTA | -0.05
CTTTACACGTGTGAGA | 0.17
TTTAACACGTGAGTTA | 0.15
GGATGCACGTGTGGCG | 0.11
GTGTTCACGTGGCCTT | 0.21
CTGGTCACGTGAGTGC | 0.12
TGAAGCACGTGGAGGA | -0.01
TGTTTCACGTGGAACA | 0.24

Sequence | relative binding free energy [kcal/mol]
TTTAGCACGTGTGTGT | 0
AGTTTCACGTGAAGCT | 0.31
ATTGGCACGTGGGACT | -0.12
GATTACACGTGTGGAT | 0.31
AGTGGCACGTGGAAAT | 0.05
TGCTGCACGTGAGTCT | 0.35
AATTGCACGTGTGTTT | 0.08
TTTAGCACGTGTCATG | -0.09
TAGTACACGTGTCTTA | 0.13
TTGATCACGTGTAGCA | 0.23
GTATACACGTGGAGGT | 0.03
ATATCCACGTGGATGT | 0.01
AATTGCACGTGACGAG | 0.21
TGGGTCACGTGATCTT | 0.31
TCAGGCACGTGGAGTG | -0.1
AAAGTCACGTGCTATT | 0.14
TGTAGCACGTGGTTAA | -0.08
ATGTACACGTGTGCTG | -0.03
GTGAGCACGTGGCAGT | -0.2
GTTTACACGTGTAAGT | 0.16
TTTAACACGTGATAGT | 0.17
TATTACACGTGTTGAG | 0.06
TGGGTCACGTGTCATG | 0.1

Sequence | relative binding free energy [kcal/mol]
GTAGACACGTGGTATG | -0.09
AGTCTCACGTGTTATG | 0.14
AGGGGCACGTGAGGGA | 0.15
TGATTCACGTGCGCTT | 0.26
TCGTGCACGTGGTATG | -0.02
TTTAACACGTGTTGTT | 0.04
GCTGACACGTGTGGGT | 0.16
TGGCGCACGTGGGATT | -0.11
AAAGGCACGTGGTAAT | -0.08
ATGGCCACGTGATGGT | 0.09
ATGGGCACGTGTTGAG | -0.05
GGTTTCACGTGCGAAG | 0.38
GGGCTCACGTGGGATT | 0.27
TACTGCACGTGGTATT | -0.14
GTTATCACGTGGCGGA | 0.15
GGTGACACGTGGGATC | 0.03
ATCTTCACGTGTTATT | 0.08
AGGAGCACGTGACAGT | 0.1
ATGATCACGTGGAATG | 0.19
TAGGGCACGTGACTGT | -0.03
ATGTGCACGTGGCTGG | -0.13
CAGGCCACGTGGTGTT | -0.06
CATAGCACGTGTGTGT | -0.1

Sequence | relative binding free energy [kcal/mol]
GAAGTCACGTGGGGAG | 0.06
GGTGTCACGTGACGAT | 0.19
CGGTACACGTGGTGAA | 0.05
TAAGTCACGTGTCGGA | 0.1
GTGTGCACGTGTAGTA | 0.03
TGAAACACGTGTTATT | 0.18
TTGTTCACGTGAGATT | 0.45
AATATCACGTGATGAT | 0.27
TTGTTCACGTGAGTGT | 0.39
GCTAGCACGTGGTGAG | -0.08
TGTGACACGTGTGGTA | -0.04
TTTCACACGTGATATA | 0.17
GTGTGCACGTGTTCTT | 0.11
GATGACACGTGTTGTG | -0.06
GAGGCCACGTGGTTGG | 0.05
CAGTGCACGTGGATTT | 0.21
AGGAGCACGTGTGCGT | -0.27
TTGGTCACGTGTAGAG | 0.11
CATTTCACGTGAGGAG | 0.45
GGGGTCACGTGGGTAA | 0.1
AGAAACACGTGTGGGA | 0.01
TTACGCACGTGCGGGG | -0.08
TGAGTCACGTGAGTCG | 0.34

Sequence | relative binding free energy [kcal/mol]
ATTCGCACGTGGTTTG | -0.13
ATGTGCACGTGAGTAA | 0.15
GTGTTCACGTGAATGG | 0.37
TTTGGCACGTGAGAGC | 0
TGTTTCACGTGTAGAT | 0.25
CGGGTCACGTGGAGTA | 0.14
ATTCTCACGTGGTGAG | 0.2
GGTCACACGTGACGTG | 0.46
TATAGCACGTGGATAT | -0.02
TTAGTCACGTGATGCA | 0.13
TTACTCACGTGAGTTT | 0.22
GTGCTCACGTGTTGAA | 0.23
CCTAGCACGTGTGGGT | 0
AGTTTCACGTGGATGG | 0.28
GGCTTCACGTGTAAGG | 0.28
TAGTTCACGTGGGACG | 0.07
TAGGACACGTGGCAGT | -0.12
TTGAACACGTGTAGAG | 0.15
CGTTTCACGTGGAATA | 0.46
ATGGACACGTGGTAGG | 0.07
ACGCTCACGTGTTGTT | 0.24
TTATGCACGTGTGCAT | -0.1
GTAATCACGTGGTGGG | 0.14
